The values below come from patent publication EP1366764A1, “Method of screening for calcium receptor-active molecules” (The Brigham & Women's Hospital, Inc., priority 1993, dated 1994).

The assay concerns bovine parathyroid cells. The assay is classed as cell-based. To be noted: at concentrations that caused the mobilization of intracellular Ca2+; 30 min, 0.5 mM extracellular Ca2+. As to the method:
Cells were suspended in PCB containing 0.5 mM CaCl2 and 0.1% BSA.
Counting of samples and data reduction were performed on a Packard Cobra 5005 gamma counter.

As to `NC[C@@H]1O[C@H](O[C@H]2[C@@H](O)[C@H](O[C@@H]3[C@@H](O)[C@H](N)C[C@H](N)[C@H]3O[C@H]3O[C@H](CN)[C@@H](O)[C@H](O)[C@H]3N)O[C@@H]2CO)[C@H](N)[C@@H](O)[C@@H]1O` [neomycin B], the “inhibition of PTH secretion” value is recorded as “inhibited PTH secretion to the same extent as extracellular Ca^2+”. Consider `NCCCNCCCCNCCCN` [spermine], for which the “inhibition of PTH secretion” value is listed as “inhibited PTH secretion to the same extent as extracellular Ca^2+”.
